# Experimental data as given in PubChem BioAssay AID1745853 (National Center for Advancing Translational Sciences (NCATS), 2022).
# This is one part of the list. Shown are side measurements of this screen, not its main read-out; they come without a call.
# Columns and labels:
# Assay in all cases: Primary Screen for Target Class Profiling of Small Molecule Inhibitors of Methyltransferases
# [1] = molecular target: Glycine N-methyltransferase (Homo sapiens) (UniProt Q14749); conditions: purified enzyme, MTase-Glo SAH luminescence; measured here: GNMT inhibition; at 40 µM; stronger effect = lower value
# Outline: (§1)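 Each enzyme was assayed with SAM and its substrate. SAH formation detected by MTase-Glo luminescence; single-point 40 uM screen[…].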
# [2] = molecular target: Guanidinoacetate N-methyltransferase (Homo sapiens) (UniProt Q14353); conditions: purified enzyme, MTase-Glo SAH luminescence; measured here: GAMT inhibition; at 40 µM; stronger effect = lower value
# Outline: as §1
# [3] = molecular target: Histamine N-methyltransferase (Homo sapiens) (UniProt P50135); conditions: purified enzyme, MTase-Glo SAH luminescence; measured here: HNMT inhibition; at 40 µM; stronger effect = lower value
# Outline: as §1
# [4] = molecular target: Nicotinamide N-methyltransferase (Homo sapiens) (UniProt P40261); conditions: purified enzyme, MTase-Glo SAH luminescence; measured here: NNMT inhibition; at 40 µM; stronger effect = lower value
# Outline: as §1
# [5] = molecular target: Phenylethanolamine N-methyltransferase (Homo sapiens) (UniProt P11086); conditions: purified enzyme, MTase-Glo SAH luminescence; measured here: PNMT inhibition; at 40 µM; stronger effect = lower value
# Outline: as §1
# % is scaled to controls: 0 for no effect and ±100 for the full control effect.
Compound,"activity change, negative = inhibition [1] [%]","activity change, negative = inhibition [2] [%]","activity change, negative = inhibition [3] [%]","activity change, negative = inhibition [4] [%]","activity change, negative = inhibition [5] [%]"
CC[C@@]1(O)CCN(C(=O)CCc2nc(-c3ccncc3)no2)C[C@H]1O,-1.59,-3.09,-0.284,-7.13,-4.13
Cc1c(C(=O)N[C@H](c2cnn(C)c2)C2CC(O)C2)sc2nc[nH]c(=O)c12 (some centres undefined),-1.73,-3.98,0.52,-10.1,9.95
COc1cccc(CN2CC(C(=O)NCc3cc4ccccc4[nH]3)CCC2=O)c1 (centres undefined),-23.7,-17.4,-7.32,-17.8,-23.1
COc1cccc(S(=O)(=O)N2CCC(Cc3nncn3C(C)C)CC2)c1,3.16,0.954,13,-2.95,9.69
CCCn1c(=O)c2cc(Cl)ccc2n2c(=O)n(CC(=O)N3CCN(c4ccccc4F)CC3)nc12,-7.91,1,-0.174,-16.5,-7.28
CC1(C)CC[C@]2(C(=O)O[C@@H]3O[C@H](CO)[C@@H](O)[C@H](O)[C@H]3O)CC[C@]3(C)C(=CCC4[C@@]5(C)CC[C@H](O[C@H]6O[C@H](CO)[C@@H](O)[C@H](O[C@@H]7O[C@H](CO)[C@@H](O)[C@H](O)[C@H]7O)[C@H]6O)C(C)(C)C5CC[C@]43C)[C@@H]2C1 (some centres undefined),-0.132,12.6,-5.92,-3.7,6.12
O=C(C1CC1)N1CCCC2(CN[S+](=O)([O-])c3cccnc3O2)C1 (centres undefined),-3.67,-5.9,-1.38,-7.67,32.9
O=c1c2ccccc2n2c(-c3ccc(F)cc3)nnc2n1Cc1ccc(F)cc1,0.62,0,4.67,3.51,3.81
COCC(=O)NC[C@H]1O[C@@H](CO)[C@@H](O)[C@H]1N1CCN(c2cccc(C(F)(F)F)c2)CC1,-5.71,-5.62,1.95,-2.21,0.403
Cc1cc(CN(C)C2CCCc3ccccc32)no1 (centres undefined),-5.27,-3.22,-1.82,-15.2,-4.47
COC(=O)C1(Cc2ccc(O)cc2)OC(=O)C(OC)=C1c1ccc(O)cc1 (centres undefined),0,2.18,-1.93,-12.6,3.66
CC(C)Cn1c(=O)c2ccccc2n2c(CCC(=O)Nc3ccc(F)c(F)c3)nnc12,-12.3,0.942,-2.67,-30.5,-6.91
CC(C)C(CO)Nc1nc(Nc2cc(N)cc(Cl)c2)c2ncn(C(C)C)c2n1 (centres undefined),-7.82,-1.43,-3.08,-36.7,-3.87
CCN1C(=O)c2cc(C(=O)Nc3ccc(Cl)cc3C)nn2CC1(C)C(=O)NC1CCCC1 (centres undefined),-0.255,-0.152,-2.7,-2.88,-2.5
CCCNS(=O)(=O)c1ccc(Cl)c(-c2nnc(-c3ccccc3)o2)c1,2.91,1.51,4.05,3,2.21
CCOC(=O)CCNc1cc(N2CCc3ccccc3CC2)nc(-c2ccccn2)n1,-4.33,,12.4,-5.06,24.8
CN1Cc2ncnc(N3CCOCC3)c2CN(c2cccnc2)C1=O,-5.15,-5.85,-0.936,-15.6,-11.1
Cc1ccc2c(c1)c1c3n2CCN(CC(O)CN2CCCCC2)C3CCC1 (centres undefined),0.276,0,-15.1,6.35,-1.08
Cc1cc(=O)oc2c(C=O)c(O)ccc12,-54.5,0.53,5.05,-21.9,-16.8
O=C(c1ccccc1-c1ccccc1)N1CCCn2cncc2C1,-1.6,1.58,0.065,-4.53,1.19
CCCS(=O)(=O)NCC1CN(CC2CC2)CC12CCCCC2 (centres undefined),-6.16,-7.14,-5.98,-11.9,-8.18
CC1(C(=O)NC2CCCCCC2)Cn2c(cc3ccccc32)C(=O)N1Cc1ccco1 (centres undefined),0.481,0,1.66,-4.3,-2.67
c1ccc(CC2=NOC3(CCN(Cc4ccccc4)C3)C2)cc1 (centres undefined),-5.09,-7.25,-1.65,-16.9,-9.45
COc1ccc2c(c1)OCC(CNC(=O)c1ccc(-c3nnn(C)n3)cc1)C2 (centres undefined),1.12,0.806,1.39,3,-10.8
O=C(CCc1nnc2n(Cc3ccc(Cl)cc3)c(=O)c3ccccc3n12)N1CCN(c2ccccn2)CC1,-21.5,0,-5.16,-6.7,-0.664
O=C(c1nnc(CN2CCN(c3ccccn3)CC2)n1-c1cccnc1)N1CCC[C@@H]1c1cccc(F)c1,-3.25,-1.41,-2.54,-4.62,0.494
O=C(NCCc1cccs1)C1CCN(c2cc(C(F)(F)F)ncn2)CC1,-0.862,-1.92,0.361,-6.61,-8.11
CN(C)CCOC(c1ccccc1)c1ccccc1,-2.42,7.7,-12.3,-3.59,10.6
Cc1ccc(CNC(=O)Cn2c(=O)oc3cc(S(=O)(=O)N4CC(C)CC(C)C4)ccc32)cc1 (centres undefined),-3.62,0,-3.48,-5.34,-8.24
